# ChEMBL document CHEMBL4888484, “Replenishing the malaria drug discovery pipeline: Screening and hit evaluation of the MMV Hit Generation Library 1 (HGL1) against asexual blood stage Plasmodium falciparum ,using a nano luciferase reporter read-out” (2022)
# Screen size: about 150,000 compounds; about 540 (0.36%) showed an effect of 50% or more. This is one part of the list.
# Tested on: Plasmodium falciparum
# Test: Primary screen in NF54 nanoGlo assay, in single point, at 2uM, 72h; a lower Z score goes with more inhibition
# Assay type: functional, Erythrocyte
# Details: timepoint 72 hour
SMILES,% Inhibition [%],Z score
Cc1ccc(CS(=O)(=O)N2CCN(c3nc[nH]n3)CC2)cc1F,1,-0.09
COc1cc(C(=O)NC(C)(C)c2cnn(C)c2)n[nH]1,3,-0.37
Cc1cc(C(=O)Nc2ccc(N(C)C(=O)c3cc(C)sc3C)c(Cl)c2)c(C)s1,-1,0.22
CC(C)(C)c1nc(C(=O)Nc2c[nH]nn2)cs1,2,-0.19
CC(C)c1ccc(C#N)c(N2CCC(N(C)C)CC2)n1,-10,1.73
COc1ccc(CCNC(=O)C(=Cc2cc(Br)ccc2OC)C(=O)NCCc2ccc(OC)cc2)cc1,-9,1.11
COc1ccc(C2CN(C(=O)c3cccc(Cl)c3)CC2C(=O)N2CCOCC2)cc1 (stereo not drawn),0,0.01
c1ccc2c(CN(CC3CCN(C4CCCC4)CC3)C[C@H]3CCCO3)c[nH]c2c1,-13,1.78
Cc1cc(C(=O)NCC2(N(C)C)CC2)ns1,1,-0.12
O=C(c1ccc(F)cc1)N1CCOc2ccc(CN3CCCCC3)cc2C1,-10,1.05
O=C(COc1ccc(F)cc1)N1C2CCC1CC(n1nccn1)C2 (stereo not drawn),-8,1.24
CN1CCN(C(=O)CCCc2ccccc2)C2(CCCC2)C1,-15,2.34
O=C1CC(C(=O)NCC2CCCOC2)(c2ccccc2)CN1 (stereo not drawn),-14,1.38
Cn1nc2nc(N3CCN(Cc4ccccc4)CC3)nc(-c3ccccc3Cl)c2c1N,-2,0.34
O=C1OCC2(CCN(C(=O)c3cc(C(F)(F)F)ccc3Cl)CC2)O1,-2,0.29
O=C(c1ccoc1C1CC1)N1CCn2ccnc21,-14,2.16
CCc1noc2nc(C)nc(N3CCC[C@H](C(=O)Nc4ccccc4Cl)C3)c12,-1,0.11
O=C(NCCC1=CCCCC1)c1cnn(-c2ccncc2)c1C(F)F,-9,0.82
CNC(=O)[C@H]1CCc2nc(N3CCN(C(C)=O)CC3)sc2C1,28,-3.23
Cc1cnc(C(C)CNC(=O)NC2CCCCC2n2cccn2)s1 (stereo not drawn),-2,0.25
CCCN(Cc1cc(NC(=O)c2cccc(OC)c2)ccc1N(C)C)C(=O)c1ccc(F)cc1,-4,0.58
CC1(C)C[C@@H](NC2CCN(c3ccc(-n4cccn4)cc3)CC2)CCO1,6,-1.13
CCN(CC)C(=O)c1ccc2c(c1)N(CC(=O)N1CCCCC1)C(=O)CO2,13,-1.69
COc1ccc(CNC(C)(C)C#N)cc1,-9,1.68
COc1cc(Cl)ccc1C(=O)N(C)C1C2CCOC2C1(C)C (stereo not drawn),-14,1.15
CC(C)c1nnsc1CN1CCCn2nc([C@@H](O)CN(C)C)cc2C1,-4,0.7
COc1ccc(-c2noc(NCC3CCN(Cc4ccccc4F)CC3)n2)cc1OC,-13,1.1

SMILES,% Inhibition [%],Z score
CCN(CC)c1nc(N)n(CCO)c(=O)n1,-13,1.18
CC(=O)N1CCC(CNC[C@H](O)c2ccc(Cl)c(Cl)c2)CC1,1,-0.21
O=C(CCS(=O)(=O)Cc1csc(C2CCCCC2)n1)Nc1ccccc1,-7,1.3
Cc1n[nH]c(C)c1[C@H](C)NC(=O)Cn1cccn1,-8,1.25
Cc1cc(-c2cnn(CC(=O)Nc3nn(C)c4ccccc34)c2)nc(N)n1,1,-0.15
Cn1nc(C2CC2)n(C2CCN(Cc3ccccc3)CC2)c1=O,-6,0.87
CN(Cc1ccc(F)c(F)c1)C(=O)Cc1csc(-c2ccoc2)n1,-10,1.13
CCOC(=O)CC1(N(C)C(=O)[C@H]2CCOC2)CCCCC1,-1,0.1
Cc1nc(CC(C)C)c(O)c2c1S(=O)(=O)CC2=O,10,-1.66
O=C(CN1CCC[C@H]1CO)Nc1ccccc1,-2,0.26
Cc1ccc(N2CCN(Cc3ccn(C)c(=O)c3)CC2)cc1,-11,1.21
COC(=O)CC1(NCc2cc(C)cc(C)c2)CCS(=O)(=O)CC1,-11,2.13
CCOc1ncccc1NC(=O)CCCc1ccc2[nH]c(=O)[nH]c2c1,-5,0.88
C[C@]12C(=O)N(CCN3CCOCC3)CC(=O)N1CCc1c2[nH]c2ccccc12,-8,1.45
CCOc1ccc(CN2C[C@@H](CO)[C@H](NC(=O)c3cnccn3)C2)cc1,-14,2.46
Cc1cc(-c2cc(-c3ccc(C(F)(F)F)cc3)nc(CC(N)=O)n2)c(C)o1,-7,0.66
CCC[C@H](Nc1nccn2nnnc12)C1CCC1,16,-1.89
CCN(CC(=O)NC(C)C)S(=O)(=O)c1cccc(F)c1C(=O)OC,-2,0.51
COc1ccc([C@@H](O)C(=O)N2CCC3(CCC(=O)N(C4CC4)C3)CC2)cc1,-5,0.54
Cc1ccc(-c2noc(C3CC3)n2)cc1-n1cc(C(=O)N2CCN(c3cccc(C)c3C)CC2)c(C)n1,3,-0.36
Cc1nn(CC(=O)N2CCC[C@H](c3cc(O)ncn3)C2)c(C)c1C,-1,0.25
CCN=C(NCc1noc(C)n1)NC1CCCC(CC)C1 (stereo not drawn),3,-0.32
CN(Cc1cccc(F)c1F)[C@H](c1ccccn1)C1CC1,-15,1.39
Cc1nsc(NCc2ccncn2)n1,-1,0.1
COc1ccc(F)cc1S(=O)(=O)N1C[C@@H]2C[C@H](NC(=O)c3ccccc3)[C@H]1C2,29,-3.24
Cc1cc2c3c([nH]c2cc1S(=O)(=O)NCCc1ccc(Cl)cc1)CCCC3=O,-14,2.25
COc1ccc2c(c1)C(c1ccc(F)cc1)=C(CN1CCCC1)CO2,4,-0.49
